From PubChem BioAssay AID504845 (National Center for Advancing Translational Sciences (NCATS), 2011)
“And” between values parts separate entries of the source, which are not always exact repeats. Identical values can stand only once. Among all 390,000 compounds or so, about 150 (0.038%) were called active. Inconclusive results, whose numbers are uncertain, are shown with a selection of clear calls. Calls follow the shape of the dose curve; as a rule, active = well fitted inhibition curve with a large enough effect; inconclusive = small, poorly fitted or top-dose-only effect; inactive = no such curve, though single readings can be large or run the other way. Potencies beside an inconclusive call are fits to weak or partial responses and may not hold up.

Target: Regulator of G-protein signaling 4 (Homo sapiens) (UniProt P49798)
Chain of UniProt P49798 (P49798 whole entry, looked up): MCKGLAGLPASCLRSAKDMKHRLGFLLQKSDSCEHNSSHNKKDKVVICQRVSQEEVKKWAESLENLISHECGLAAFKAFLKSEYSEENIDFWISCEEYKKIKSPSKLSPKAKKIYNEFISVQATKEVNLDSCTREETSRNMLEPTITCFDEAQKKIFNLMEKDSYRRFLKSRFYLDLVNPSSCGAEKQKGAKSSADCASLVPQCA
Test: Inhibitors of Regulator of G Protein Signaling (RGS) 4: qHTS; also: nearly all actives have a fitted effect of over 75% in size
Conditions: Transcreener GDP fluorescence polarization, RGS4-accelerated GTP hydrolysis; series mostly up to 114 µM
Method in brief: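 MLSMR compounds (23 nl, pin-transferred) preincubated 10 min at room temperature with a 500nM (2x) first reagent, then RGS4 at 900nM (2x) plus Transcreener GDP mix added; fluorescence polarization (620/688 nm) read before and after 90 min at 30 °C.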
Potency is read from the fitted curve at half-maximal effect; tags tell the direction and shape of the fitted curve.

SMILES	Potency
S=c1[nH]nc(-c2cc(-c3ccccc3)n[nH]2)n1/N=C/c1ccc(Cl)cc1	inconclusive: 89.1 µM [inhibitor, partial curve, poor fit]
Nn1c(Cc2cccc3ccccc23)nnc1SCCOc1ccc(F)cc1	inconclusive: 100 µM [inhibitor, partial curve, poor fit]
CCCC(CCC)C(=O)O	inactive and inconclusive: 189 nM [inhibitor, full curve, poor fit]
CC1CCCN(C(=O)c2cccc(S(=O)(=O)N3CCCc4ccccc43)c2)C1 (centres undefined)	inconclusive: 56.2 µM [inhibitor, partial curve, poor fit]
Cc1cnccc1CN(C)Cc1cn(C)nc1-c1cccc(Cl)c1	inconclusive: 79.4 µM [inhibitor, partial curve, poor fit]
O=C(CC1Oc2ccccc2NC1=O)NCc1ccccc1 (centres undefined)	inconclusive: 100 µM [inhibitor, single point]
CCOc1ccc(C(=S)N2CCCC2)cc1OC	inactive
CC(=O)c1cc(NC(=O)c2ccccc2)c(=O)oc1C	inconclusive: 44.7 µM [inhibitor, partial curve, poor fit]
O=S1(=O)[C@H]2C[C@@H]3C=C[C@@]2(CN1Cc1ccc(F)cc1)O3	inconclusive: 39.8 µM [inhibitor, full curve, poor fit]
CN(C(=O)c1cccc(NC(=O)Cc2ccc(NC(=O)C3CCCN(S(=O)(=O)c4cccc([N+](=O)[O-])c4)C3)cc2)c1)C1CCCC1 (centres undefined)	inconclusive: 50.1 µM [inhibitor, partial curve, poor fit]
COc1ccc(N=C(NN)c2ccc3ccccc3n2)cc1	inconclusive: 56.2 µM [inhibitor, partial curve, poor fit]
COc1ccc2cc3c(N)nn(C(=O)c4cccc([N+](=O)[O-])c4)c3nc2c1	inconclusive: 10 µM [inhibitor, full curve, poor fit]
COc1ccccc1CNC(=O)c1cc2cccc3c2n1CC(C)S3 (centres undefined)	inconclusive: 89.1 µM [inhibitor, single point]
Cc1ccc(NC(=O)COn2nnc3ccc(S(=O)(=O)N(C)C)cc32)cc1F	inconclusive: 89.1 µM [inhibitor, single point]
COc1cc(/C=C/C(=O)Nc2cccc(S(=O)(=O)NC3=NCCCCC3)c2)ccc1OCC#N	inconclusive: 89.1 µM [inhibitor, single point]
CC(=O)NC(=O)Nc1sc(=S)n(C)c1C	inconclusive: 89.1 µM [inhibitor, single point]
CC(=O)c1ccccc1OC(=O)COc1ccc(Cl)cc1C	inconclusive: 44.7 µM [inhibitor, partial curve, poor fit]
O=C(NCCc1c[nH]c2ccccc12)/C(=C/c1cccnc1)NC(=O)c1ccccc1	inconclusive: 100 µM [inhibitor, partial curve, poor fit]
Cn1nc(C(=O)NCc2ccc(F)cc2)c2c1-c1ccccc1SC2	inactive
C/C(=N/Nc1ncc(Br)cn1)c1ccc(Br)cc1	inconclusive: 25.1 µM [inhibitor, full curve, poor fit]

SMILES	Potency
COC(=O)CNc1nc(OC)nc(N(C)C)n1	inconclusive: 89.1 µM [inhibitor, single point]
O=C(Nc1nccs1)c1cc(-c2ccccn2)nc2c(Cl)cccc12	inconclusive: 17.8 µM [inhibitor, full curve, poor fit]
O=C(Nc1ccccn1)c1ccc([N+](=O)[O-])o1	inactive
CCOC(=O)c1nn(-c2ccc(Cl)cc2)c2nc(-c3ccc(C)cc3)c(C#N)c(=O)n12	inactive
Cc1ccoc1C(=O)NCCCNC(=O)c1occc1C	inconclusive: 50.1 µM [inhibitor, partial curve, poor fit]
COc1ccc(-c2csc(NNC3=NCCCCC3)n2)cc1	inconclusive: 35.5 µM [inhibitor, full curve, poor fit]
Cn1c(SCC(N)=O)nnc1-c1ccc(S(=O)(=O)N2CCCC2)cc1	inconclusive: 89.1 µM [inhibitor, single point]
CCC1CCc2nc3sc(C(=O)Nc4ccc(C)cc4C)c(N)c3cc2C1 (centres undefined)	inconclusive: 89.1 µM [inhibitor, partial curve, poor fit]
CCOC(=O)N1CCC2(CC1)OC(=O)C(C)=C2C(=O)NCc1ccc(C)cc1	inactive
CC(=O)c1c(C)[nH]c(C(=O)CSc2nnc(-c3cccs3)n2Cc2ccccc2)c1C	inconclusive: 79.4 µM [inhibitor, partial curve, poor fit]
CC(C)c1ccc(NC(=O)C2Cc3ccccc3N2C(=O)c2ccccc2)cc1 (centres undefined)	inactive
COc1ccccc1Nc1c2c(nc3ccc(NC(=O)/C=C/c4cc(OC)c(OC)c(OC)c4)cc13)CCCC2	inconclusive: 50.1 µM [inhibitor, partial curve, poor fit]
CC(C)(C)C1CCc2c(sc(NC(=O)CSc3ncn[nH]3)c2C#N)C1 (centres undefined)	inconclusive: 50.1 µM [inhibitor, partial curve, poor fit]
Cc1nc2sccn2c1-c1csc(NCc2ccccc2)n1	inconclusive: 56.2 µM [inhibitor, partial curve, poor fit]
CN(C)C(=O)CSc1nc(-c2ccccc2)nc2c1CCCC2	inactive
CN(C)C(=O)COC(=O)c1cccc(CN2C(=O)c3ccccc3C2=O)c1	inconclusive: 44.7 µM [inhibitor, partial curve, poor fit]
CC[C@]12c3[nH]c4cc(-c5ccco5)ccc4c3CCN1C(=O)[C@@H](CC(=O)NC(C)(C)C)C[C@@H]2C(=O)N1CCN(C(=O)c2ccco2)CC1	inconclusive: 35.5 µM [inhibitor, full curve, poor fit]
O=C1/C(=C\c2ccc(Br)o2)Cc2ccccc21	inconclusive: 28.2 µM [inhibitor, full curve, poor fit]
Cc1onc(-c2ccccc2)c1C(=O)NC(=S)NNC(=O)c1cc(-c2ccc(F)cc2)n[nH]1	inconclusive: 28.2 µM [inhibitor, full curve, poor fit]
